The campaign covered roughly 310,000 compounds. About 2,200 (0.71%) showed an effect of 50% or more. The effect is printed as a negative number. The list shows a part of the results.
These molecules were tested against human ether-à-go-go-related gene (hERG) potassium channel (human, UniProt Q12809) (assay: primary screen, population patch clamp on CHO cells stably expressing hERG).
Chain of human ether-à-go-go-related gene (hERG) potassium channel (Q12809 whole entry, looked up): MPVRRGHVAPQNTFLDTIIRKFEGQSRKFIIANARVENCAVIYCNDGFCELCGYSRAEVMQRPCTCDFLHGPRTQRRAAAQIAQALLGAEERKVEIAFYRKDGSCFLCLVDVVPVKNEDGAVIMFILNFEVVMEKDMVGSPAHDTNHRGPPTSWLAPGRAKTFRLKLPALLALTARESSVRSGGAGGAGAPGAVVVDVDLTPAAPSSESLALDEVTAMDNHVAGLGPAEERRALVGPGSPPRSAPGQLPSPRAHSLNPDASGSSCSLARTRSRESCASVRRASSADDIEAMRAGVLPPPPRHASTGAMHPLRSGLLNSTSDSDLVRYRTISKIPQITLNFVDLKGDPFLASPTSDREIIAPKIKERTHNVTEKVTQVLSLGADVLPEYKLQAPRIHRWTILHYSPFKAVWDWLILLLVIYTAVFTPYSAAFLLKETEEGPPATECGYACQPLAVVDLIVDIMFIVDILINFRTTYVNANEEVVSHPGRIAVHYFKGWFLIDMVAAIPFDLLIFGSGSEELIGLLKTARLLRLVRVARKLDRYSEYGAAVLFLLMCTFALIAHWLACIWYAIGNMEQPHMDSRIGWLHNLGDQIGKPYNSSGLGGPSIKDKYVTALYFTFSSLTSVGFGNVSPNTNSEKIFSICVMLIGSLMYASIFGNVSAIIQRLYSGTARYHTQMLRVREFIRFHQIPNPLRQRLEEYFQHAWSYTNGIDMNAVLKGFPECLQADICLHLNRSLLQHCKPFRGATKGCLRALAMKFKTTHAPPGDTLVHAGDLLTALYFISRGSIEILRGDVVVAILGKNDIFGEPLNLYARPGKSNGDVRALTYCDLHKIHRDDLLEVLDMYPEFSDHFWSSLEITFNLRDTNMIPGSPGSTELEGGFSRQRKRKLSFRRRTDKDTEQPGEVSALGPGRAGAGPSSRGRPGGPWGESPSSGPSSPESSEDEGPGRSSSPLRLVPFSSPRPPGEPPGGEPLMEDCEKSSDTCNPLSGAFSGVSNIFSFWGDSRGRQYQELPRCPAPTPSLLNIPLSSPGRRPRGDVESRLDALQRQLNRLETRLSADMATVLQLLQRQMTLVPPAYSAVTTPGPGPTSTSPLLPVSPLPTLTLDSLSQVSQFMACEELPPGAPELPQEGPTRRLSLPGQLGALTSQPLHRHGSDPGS

First: Cc1ccc(Cn2c(SC3CCOC3=O)nc3ccccc3c2=O)cc1 (stereo not drawn)
Second: CC(C)Cn1c(SCC(=O)Nc2cccc(S(N)(=O)=O)c2)nc2ccccc2c1=O
The “hERG current change (%, negative = inhibition) at 1uM” value of the first is lower: -6.65% for the first, 12.8% for the second.

First: O=C(CN1CCN(c2ccc(F)cc2)CC1)Nc1ccccc1[N+](=O)[O-]
Second: Cc1c(Cl)cccc1NC(=S)N1CCCN(Cc2ccc(F)cc2)C1
The “hERG current change (%, negative = inhibition) at 1uM” value of the first is lower: 2.79% for the first, 7.8% for the second.

First: CCOCCCNC(=O)c1cc(-c2cccnc2)nc2ccc(S(=O)(=O)N3CCC(C)CC3)cc12
Second: CC(NC(=O)COC(=O)C1CCN(S(=O)(=O)c2ccccc2C(F)(F)F)CC1)c1ccccc1 (stereo not drawn)
The “hERG current change (%, negative = inhibition) at 1uM” value of the first is higher: 20.5% for the first, 4.12% for the second.

Going from `O=C(Nc1ccc(O)cc1)/C(=C\c1ccncc1)NC(=O)c1ccccc1` to `Cc1ccccc1C(=O)OC1OC(=O)C(Cl)=C1Nc1ccc(C(=O)O)cc1` (stereo not drawn), the “hERG current change (%, negative = inhibition) at 1uM” value rises from 12.9% to 15.2%.

Compared with `CCN(CC)S(=O)(=O)c1cccc(NC(=O)C(=O)c2c(-c3ccccc3)cc3ccccn23)c1`, `CCCCC(=O)Nc1cccc(-c2csc(-c3ccccc3)n2)c1` is lower in “hERG current change (%, negative = inhibition) at 1uM” value: 10.5% for the first, 5.43% for the second.

Going from `COc1ccc(N2CCN(C(=O)c3nc4nc(C)cc(C)n4n3)CC2)cc1` to `COc1ccc(S(=O)(=O)Nc2c(C)nc3nc(C)[nH]n3c2=O)cc1`, the “hERG current change (%, negative = inhibition) at 1uM” value rises from 7.39% to 13.5%.

First: C=CCNS(=O)(=O)c1cccc2cc(C(=O)O)c(O)cc12
Second: O=C(O)c1sccc1S(=O)(=O)c1ccccc1
The “hERG current change (%, negative = inhibition) at 1uM” value of the first is higher: 13.9% for the first, 2.01% for the second.

Compared with `O=C(O)Cc1ccc(NC(=S)Nc2cccc(Cl)c2Cl)cc1`, `COc1ccc(NC(=S)Nc2ccc3nccnc3c2)cc1` is higher in “hERG current change (%, negative = inhibition) at 1uM” value: 14.2% for the first, 15.3% for the second.

First: O=C(NC1CCS(=O)(=O)C1)N1CCCCC1 (stereo not drawn)
Second: CCN(C(=O)c1ccc(S(=O)(=O)N2CCCCC2)cc1)C1CCS(=O)(=O)C1 (stereo not drawn)
The “hERG current change (%, negative = inhibition) at 1uM” value of the first is higher: 10.6% for the first, -6.73% for the second.

First: Cc1ccccc1C(=O)N/C(=C/c1ccc(-c2cccnc2Cl)o1)C(=O)NCCCN1CCN(C)CC1
Second: CN1CCN(S(=O)(=O)c2ccc(Oc3ccc(F)c(Cl)c3)nc2)CC1
The “hERG current change (%, negative = inhibition) at 1uM” value of the first is higher: 12.3% for the first, 8.49% for the second.

Going from `CC(O)c1cc2c(cc1NC(=O)c1cnn3c1NC(c1ccco1)CC3C(F)(F)F)OCO2` (stereo not drawn) to `COc1cccc(CC(=O)Nc2cc(C(F)(F)F)ccc2N2CCCC2)c1`, the “hERG current change (%, negative = inhibition) at 1uM” value falls from 13.7% to 6%.

First: CC(C)CCN1C(=O)c2ccc(C(=O)Nc3cc(C(=O)O)cc(C(=O)O)c3)cc2C1=O
Second: COc1cc(NC(=O)c2ccccc2[N+](=O)[O-])c(C(=O)O)cc1OC
The “hERG current change (%, negative = inhibition) at 1uM” value of the first is higher: -1.38% for the first, -3.03% for the second.

First: COc1ccc(C)cc1N(C(=O)c1ccc(C#N)cc1)C1=NC(C)(C)CS1
Second: COc1ccccc1C(=O)O/N=C1/CCCc2c1ccc(OC)c2[N+](=O)[O-]
The “hERG current change (%, negative = inhibition) at 1uM” value of the first is higher: 10.5% for the first, 6.85% for the second.

Going from `CCOC(=O)c1sc(Nc2ccc(OCC)cc2)nc1C` to `Cc1nc(-c2cccs2)sc1C(=O)O`, the “hERG current change (%, negative = inhibition) at 1uM” value rises from 9.2% to 11.5%.

Going from `COc1ccc(NS(=O)(=O)c2cccc(C(=O)N3CCCCCCC3)c2)cc1` to `Cc1cccc(S(=O)(=O)Nc2nc3ccccc3nc2OC(C)C)c1`, the “hERG current change (%, negative = inhibition) at 1uM” value rises from 8.97% to 19.6%.

Going from `O=S(=O)(c1ccccc1)N1CCC(=NO)CC1` to `CC1(C)C(c2ccccc2)=[N+]([O-])CN1O`, the “hERG current change (%, negative = inhibition) at 1uM” value falls from 16.1% to -3.59%.

Compared with `CS(=O)(=O)N(CCc1ccccc1)CC(=O)NCc1ccccc1`, `CC(NC(=O)CSCc1ccc(Br)cc1)c1ccccc1` (stereo not drawn) is lower in “hERG current change (%, negative = inhibition) at 1uM” value: 17.2% for the first, 9.08% for the second.

First: CC(=O)OCC(=O)Nc1ccccc1OC(F)F
Second: O=C(COC(=O)c1ccc(O)cc1O)Nc1ccc(Cl)cn1
The “hERG current change (%, negative = inhibition) at 1uM” value of the first is higher: 16.9% for the first, 5.42% for the second.

Compared with `COc1cc(OC)cc(C(=O)OCC(=O)NCc2ccco2)c1`, `O=C(O)CSCC(=O)NCc1cccc(C(F)(F)F)c1` is higher in “hERG current change (%, negative = inhibition) at 1uM” value: 5.78% for the first, 8.33% for the second.

First: CCc1ccc(-c2nc(SCC(=O)N(CC)C3CCS(=O)(=O)C3)n[nH]2)cc1 (stereo not drawn)
Second: Cc1ccc(-c2nnc(SCC(=O)NC(=O)Nc3ccc(C)cc3C)n2N)cc1
The “hERG current change (%, negative = inhibition) at 1uM” value of the first is lower: 3.17% for the first, 7.21% for the second.

Compared with `CCn1cc(C(=O)c2cccs2)c2ccccc21`, `CCN(CC)CCCNC(=O)Cc1c(C(=O)O)n(C)c2ccccc12` is lower in “hERG current change (%, negative = inhibition) at 1uM” value: 19% for the first, 11.1% for the second.

Compared with `COc1ccc2c(=O)c(-c3ccccc3C)c(C)oc2c1`, `COc1cccc(C(c2sc3nc(C)nn3c2O)N2CCC3(CC2)OCCO3)c1` (stereo not drawn) is higher in “hERG current change (%, negative = inhibition) at 1uM” value: -0.575% for the first, 6.66% for the second.

`Cc1cccc(-n2ncc3c(NCc4cccnc4)ncnc32)c1` was tested, and the “hERG current change (%, negative = inhibition) at 1uM” value was -7.8%.
